Measurements from PMC6919601, “Identification of Plasmodium dipeptidyl aminopeptidase allosteric inhibitors by high throughput screening” (PLoS ONE, 2019).
In all, about 110,000 compounds went through this assay and about 230 (0.21%) showed an effect of 50% or more. The list shows a part of the results.

Molecular target: DPAP1 (Plasmodium falciparum, UniProt Q8IIJ9)
Assay: primary screen, percent inhibition; read by cleavage of a fluorogenic dipeptide substrate; higher = more effect of the substance
Parameters: species or system P. falciparum D10 trophozoite lysates; single well
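Further: 30 min substrate incubation versus DMSO and 10 µM JCP410 controls.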

Chain of DPAP1 (Q8IIJ9 whole entry, looked up): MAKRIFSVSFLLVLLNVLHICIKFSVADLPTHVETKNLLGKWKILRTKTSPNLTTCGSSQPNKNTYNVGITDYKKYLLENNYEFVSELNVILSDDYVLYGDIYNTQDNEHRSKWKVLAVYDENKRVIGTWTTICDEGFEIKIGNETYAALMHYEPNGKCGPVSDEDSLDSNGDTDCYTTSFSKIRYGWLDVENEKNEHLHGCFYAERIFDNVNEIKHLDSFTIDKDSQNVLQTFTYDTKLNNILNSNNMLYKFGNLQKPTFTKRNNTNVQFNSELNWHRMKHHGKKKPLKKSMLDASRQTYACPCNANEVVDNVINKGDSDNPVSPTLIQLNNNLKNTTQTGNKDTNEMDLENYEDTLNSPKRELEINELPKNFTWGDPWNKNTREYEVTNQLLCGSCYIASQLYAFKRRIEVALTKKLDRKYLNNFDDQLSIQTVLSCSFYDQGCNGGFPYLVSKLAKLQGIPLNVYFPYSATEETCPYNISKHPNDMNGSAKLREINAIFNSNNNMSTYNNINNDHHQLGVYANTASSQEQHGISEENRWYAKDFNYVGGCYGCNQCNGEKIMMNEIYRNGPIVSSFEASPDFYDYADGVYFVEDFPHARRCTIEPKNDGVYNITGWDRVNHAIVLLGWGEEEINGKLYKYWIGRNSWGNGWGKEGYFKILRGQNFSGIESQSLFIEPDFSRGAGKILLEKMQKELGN

Structure (SMILES) | % Inhibition @ 10 uM [%]
Nc1nsc(Br)n1 | 1.74
Cc1ccc(-n2nnc3c(=O)n(C/C=C/c4ccccc4)cnc32)cc1 | -0.431
O=C(Nc1ccccc1)Nc1ccc2c(c1)C(=O)OC2 | 3.32
Cc1ccc(OCc2nc(-c3ccc(OCC(N)=O)cc3)no2)cc1C | -2.92
COc1ccc(S(=O)(=O)NCC2CCCO2)cc1C (stereo not drawn) | -2.83
COc1ccc(OC)c(S(=O)(=O)n2nc(C)cc2C)c1 | -2.9
CC(C)C[C@H](NC(=O)c1ccc(C#N)cc1)C(=O)NCC#N | -10.1
O=C1N=C(N2CCCCC2)S/C1=C/c1ccc2c(c1)OCO2 | -3.05
CC1CC(C)CN(C(=O)c2cccc(Cl)c2)C1 (stereo not drawn) | -1.56
CCOc1ccccc1/C=C/C(=O)NCC(=O)O | -8.34
O=C(O)C1C2CCC(C2)C1C(=O)Nc1nc(-c2ccc(F)cc2F)cs1 (stereo not drawn) | 2.44
COc1c(Cl)cc(C(=O)N(Cc2cccc(F)c2)C2CCS(=O)(=O)C2)cc1Cl (stereo not drawn) | -3.12
Cc1cc(-c2ccccc2)nc2cc(-c3ccc(Cl)cc3)nn12 | 3.59
COc1ccc(/C=N/N=C2\SC(C)C(=O)N2Cc2ccccc2)c(OC)c1 (stereo not drawn) | 1.97
COCCCN1C(=O)C(O)=C(C(=O)c2ccc3c(c2)CC(C)O3)C1c1cccc(OC)c1 (stereo not drawn) | 3.8
CN(Cc1ccccc1)C(=O)Cn1ncc2c3ccccc3n(C)c2c1=O | 1.41
C=CCNC(=O)c1cc(-c2ccccc2OC)on1 | -4.79
CCCCN(CCNC(=O)C1CCCN(c2ncnc3c2nc2n3CCCCC2)C1)Cc1ccco1 (stereo not drawn) | 3.72
CCOC(=O)c1cnc2c(C)cc3c(C)c(C)n(C)c3c2c1O | -2.63
O=C(CCCn1c(=O)c2cccn2c2cccnc21)NCc1ccccc1Cl | -1.86
COc1ccccc1C1C(C#N)=C(N)OC(C)=C1C(=O)Nc1ccc(SC)cc1 (stereo not drawn) | 0.605
CN1CCN(c2cc(Cl)ccc2[N+](=O)[O-])CC1 | 0.00784
Cc1cccc(CCNC(=O)C2CCCN(c3ncnc4onc(-c5ccc(F)cc5)c34)C2)c1 (stereo not drawn) | 0.184
CC(C)NCC(=O)Nc1c2c(nc3c1CCC3)CCCC2 | 1.54
CCc1ccc(OCC(=O)Nc2ccc(OC)cc2)c(Br)c1 | -4.43
CCOc1ccc(CNCc2c(C(=O)O)n(Cc3ccccc3F)c3ccccc23)cc1 | 1.17

Structure (SMILES) | % Inhibition @ 10 uM [%]
CCOc1ccccc1CNC(=O)c1cc(-c2ccccc2O)on1 | -3.47
O=C(NCc1ccccc1)c1ccccn1 | -6.25
COc1ccc(CNCc2ccc(C(=O)O)cc2)cc1 | -0.256
CC1CCN(c2nc3ccc(C(=O)NCCc4ccccc4)cc3s2)CC1 | -6.01
COc1ccc(C2=NOC(C(=O)NCc3ccccn3)C2)cc1 (stereo not drawn) | 4.74
O=C(Nc1cc(F)ccc1F)C12CC3CC(C1)CC(n1cnc(Br)n1)(C3)C2 | 8.87
COC(=O)CCS(=O)(=O)c1ccc(NC(C)=O)cc1 | -1.77
NC(=O)C1CCN(Cc2ccc(C(F)(F)F)cc2)CC1 | 0.217
CCNC(=O)c1c(NC(=O)COc2ccc(C)cc2)sc2c1CCCC2 | 6.35
CCC1(C)CC(=O)c2c(ccc3oc(C(=O)NCc4ccco4)c(C)c23)O1 (stereo not drawn) | -2.17
CCN(CC)CCOc1ccccc1 | -0.546
Cc1cccc(NC(=O)c2ccc(OCc3ccccc3Cl)cc2)n1 | -8.57
COc1ccc(C2CC3=NC(C)=C(C#N)C(c4ccc5c(c4)OCO5)C3=C(O)C2)cc1 (stereo not drawn) | -0.99
CCOC(=O)C1=C(C)N=c2s/c(=C\c3ccc(Cl)c(Cl)c3)c(=O)n2C1c1ccc(C)cc1 (stereo not drawn) | 6.06
COc1cc(CN2CCN(c3ccc(F)cc3)CC2)cc2c1OCO2 | -3.26
CN(C(=O)CNC(=O)c1ccccc1)C1(C(=O)NC2CCCCC2)CCCCC1 | 2.06
Cc1cccc(OCC(=O)Nc2ccc(F)cc2F)c1 | -0.49
CCOc1ccc(CCNS(=O)(=O)c2c[nH]cn2)cc1OCC | -0.499
CC(=O)Nc1ccc(NC(=O)Nc2cccc(Cl)c2)cc1 | -1.38
Cc1cc(C)c2nc(N3CCC(C(=O)NCc4ccc5c(c4)OCO5)CC3)sc2c1 | -1.58
O=C(/C(=C/c1cccs1)c1nc2ccccc2[nH]1)c1ccccc1 | -0.479
CCOc1ccc(NS(=O)(=O)c2ccc(NC(=O)c3ccc(C)cc3)cc2)cc1 | 0.245
CCCC(=O)Nc1cccc(-c2cn3ccsc3n2)c1 | 4.7
CCc1nc(-c2ccccc2)nc(C)c1C | -6.47
CCN(C(=O)Nc1ccccc1)c1ccccc1 | -6.05
CN(CC(=O)NCCc1ccccc1)S(=O)(=O)c1cccc2nsnc12 | -1.43

Structure (SMILES) | % Inhibition @ 10 uM [%]
COC(=O)c1cccc(SCCS(=O)(=O)c2ccc(C)cc2)c1 | 3.01
COc1ccc(C(=O)N2CCC(N3CCN(C)CC3)CC2)cc1 | -1.52
O=[N+]([O-])c1ccc2c(c1)ncn2-c1ccccc1 | 3.42
CCOc1ccc(C2C(C(=O)c3ccc4c(c3)CC(C)O4)=C(O)C(=O)N2CC2CCCO2)cc1 (stereo not drawn) | 1.27
CCOc1ccc(Br)cc1C1N2CC3(C(C)C)CN1CC(C(C)C)(C2)C3=O (stereo not drawn) | 3.66
CC(C)c1ccccc1OCC(=O)Nc1ccccc1Cl | -0.303
CC1Oc2ccccc2C=C1/C=c1/sc2nc(=O)c(Cc3ccc(F)cc3)nn2c1=O (stereo not drawn) | 1.23
COc1ccc(CC(=O)NCc2ccccc2)cc1 | -1.48
CCCSc1nc(N)c2c3c(sc2n1)CCCC3 | 10.6
CCc1ccc(C2CC(c3cc(OC)c(OC)c(OC)c3)n3nnnc3N2)cc1 (stereo not drawn) | -1.62
O=C(C1CC(=O)N(c2ccccc2)C1)N1CCN(C2=NS(=O)(=O)c3ccccc32)CC1 (stereo not drawn) | -1.6
Cc1cccc(N2CCN(C(=O)C3CCCCC3C(=O)O)CC2)c1C (stereo not drawn) | 0.0974
Cc1ccccc1COc1ccc(/C=C2/C(=N)N3C=CSC3=NC2=O)cc1Cl | 1.96
CC(Cc1ccc(F)cc1)NCc1ccncc1 (stereo not drawn) | 3.28
CCOc1ccc(CNc2cccc(SC)c2)cc1 | 2.36
CCOc1ccccc1/C=C(\C#N)c1nc2ccccc2n1C | 5.41
CCCCOc1ccc(C=C2C(=O)c3ccccc3C2=O)cc1 | 0.827
COc1ccc(NC(=O)c2cccc3ccccc23)cc1Cl | 2.54
COc1ccc(Br)cc1CNc1ccccc1 | 1.13
CCCCOc1cccc(C(=O)N(Cc2ccc(C)o2)C2CCS(=O)(=O)C2)c1 (stereo not drawn) | 0.569
COc1ccccc1OCC(=O)Nc1ccc(Oc2ccccc2)cc1 | -5.95
Cc1cccc(/C=C2/SC(=O)N(Cc3ccc(Cl)cc3)C2=O)n1 | -3.5
Cc1cnn(-c2cc(C)nc(-c3ccc(Br)cc3)n2)c1 | 2.65
Cc1c(C)n(C)c2ccc(C(=O)NC3C4CC5CC(C4)CC3C5)cc12 (stereo not drawn) | 7.06
Cc1ccc(S(=O)(=O)N(C)Cc2nc(-c3ccncc3)no2)cc1 | -4.52
CC(=O)Nc1cccc(NC(=O)c2cccc(Cn3cc(Cl)cn3)c2)c1 | -2.76

Structure (SMILES) | % Inhibition @ 10 uM [%]
COc1ccccc1C1=N/C(=C\c2cccc(Cl)c2Cl)C(=O)O1 | 3.58
O=C1c2ccncc2C(=O)N1c1cccc(F)c1 | 5.15
N#CCNC(=O)C(CC1CCCCC1)C(=O)N1CCc2ccccc2C1 (stereo not drawn) | -5.21
Cc1ccccc1Cn1c(C(=O)O)c(CNCCC2=CCCCC2)c2ccccc21 | -5.05
COc1cccc(N(CC(=O)Nc2ccc3ccccc3c2)S(=O)(=O)c2ccccc2)c1 | 0.746
Cc1ccc(C2CC(=O)NC(SCc3ccccc3)=C2C#N)o1 (stereo not drawn) | -4.03
CCOc1cc(C2NC(=O)c3ccccc3N2)ccc1O (stereo not drawn) | 4.3
O=C(CN(C1CCCCC1)S(=O)(=O)c1ccc(Br)cc1)N1CCc2ccccc2C1 | -3.41
CCC1(CC)Cc2ccccc2-c2nc3n(c(=O)c21)CCS3 | 2.94
NC(=O)CCN1C(=O)c2ccccc2C1=O | -3.85
O=C1CCCC2=C1C(c1ccc3c(c1)OCO3)C1C(=O)c3ccccc3C1=N2 (stereo not drawn) | 7.86
COc1ccc(CNc2nc(-c3cccnc3)nn2C(=O)c2ccc(C)cc2)cc1 | -2.92
OCC(O)CN1CCc2ccccc21 (stereo not drawn) | -6.99
COc1cc(/C=C2\SC(=O)N(CC(=O)Nc3ccc(F)cc3)C2=O)ccc1OC(C)C | 3.9
CC1=CC2=NC(=O)/C(=C\c3cc(C)n(-c4cc(Cl)ccc4C)c3C)C(=N)N2O1 | -5.1
CN(Cc1ccccc1)Cc1c(O)ccc2ccccc12 | 2.91
Cc1nn(-c2ccccc2)c(-n2cccc2)c1C(=O)NCCC1=CCCCC1 | 4.95
O=C(NCCCN1CCCC1=O)c1ccc2c(Cl)c3c(nc2c1)CCCC3 | 3.06
COc1cccc(/C=C2/NC(=O)N(Cc3ccc(Cl)cc3)C2=O)c1O | 2.01
Cc1cc(-c2ccc(S(=O)(=O)N3CCc4ccccc4C3)s2)on1 | -4.93
CC(C)CCN1CSC2=C(C#N)C(c3ccc(Cl)cc3)CC(=O)N2C1 (stereo not drawn) | 54.6
COC(=O)c1c(C)ncc2c1COC(C)OC2 (stereo not drawn) | -5.4
Cc1ccc(CNC(=O)C2CCCN(C(=O)c3cnn(-c4ccccc4)c3-n3cccc3)C2)cc1 (stereo not drawn) | 1.38
CCOc1ccc(C2C(C(=O)c3ccc(C)cc3)=C(O)C(=O)N2c2cccnc2)cc1 (stereo not drawn) | 6.82
